The assay deals with nude mice, LX-1 lung xenograft intrarenal, tumor weight T/C. Put plainly: NCI In Vivo Anticancer Drug Screen. Data for tumor model Human Lung LX-1 Xenograft (intrarenal inoculation) in NU/NU Swiss (nude) mice. The conditions noted are these: endpoint: mean tumor weight change, higher = larger tumour. As to the method: The antitumor activity of compounds was measured in mice bearing transplantable tumors. Survival or tumor size were measured and the results are expressed as the measurement made in the treated group (T) divided by the measurement made in the vehicle treated control group (C). The tumor model used in this assay is Human Lung LX-1 Xenograft (intrarenal inoculation) in NU/NU Swiss (nude) mice
On the technique in general: A xenograft is tissue or cells of one species grown in another, often human tumour cells in immunodeficient mice.

Where [1] appears, read: dose: 10.0 mg/kg/injection, schedule: Q01DX010 (sc), vehicle: Klucel (hydroxypropylcellulose) (HPC).
Setting [2] is: dose: 20.0 mg/kg/injection, schedule: Q01DX010 (sc), vehicle: Klucel (hydroxypropylcellulose) (HPC).
Where [3] appears, read: dose: 50.0 mg/kg/injection, schedule: Q01DX010 (sc), vehicle: Klucel (hydroxypropylcellulose) (HPC).
The mark [4] stands for this setting: dose: 100.0 mg/kg/injection, schedule: Q01DX010 (sc), vehicle: Klucel (hydroxypropylcellulose) (HPC).
[5] abbreviates: dose: 200.0 mg/kg/injection, schedule: Q01DX010 (sc), vehicle: Klucel (hydroxypropylcellulose) (HPC).
[6] abbreviates: dose: 300.0 mg/kg/injection, schedule: Q04DX003 (sc), vehicle: Klucel (hydroxypropylcellulose) (HPC).

Records with an inconclusive call do not appear. Some entries of the source have several records that differ or are many. This list holds those alone. The source may hold further records. Results that share an entry repeat one measurement in other runs, samples, wells, individuals or studies. Marks such as (2×) give the number of equal values in this list.

Take `N=c1ccn2c(n1)OC1C(O)C(CO)OC12` (configuration not stated): for the setting “dose: 400.0 mg/kg/injection, schedule: Q04DX003 (sc), vehicle: saline”, the T/C was 27 % of control and 60 % of control.

Turning to `OCCOCCN1CCN(CCCN2c3ccccc3Sc3ccc(C(F)(F)F)cc32)CC1`, the T/C is 74 % of control and 150 % of control (dose: 6.0 mg/kg/injection, schedule: Q01DX010 (sc), vehicle: saline); 70 % of control and 117 % of control (dose: 48.0 mg/kg/injection, schedule: Q01DX010 (sc), vehicle: saline).

As for `c1ccc2c(NCCCCCCNc3c4ccccc4nc4ccccc34)c3ccccc3nc2c1`, the T/C by setting is: under setting [1], 56 % of control and 104 % of control; under setting [2], 37 % of control and 150 % of control.

Regarding `CO[C@@]12[C@H](COC(N)=O)C3=C(C(=O)C(C)=C(N)C3=O)N1C[C@@H]1N[C@@H]12`, the T/C was -75 % of control, 17 % of control, 26 % of control (dose: 2.5 mg/kg/injection, schedule: Q04DX003 (sc), vehicle: saline); -100 % of control, -78 % of control, 17 % of control (dose: 5.0 mg/kg/injection, schedule: Q04DX003 (sc), vehicle: saline); -70 % of control and 1 % of control (2×) (dose: 6.0 mg/kg/injection, schedule: Q04DX003 (sc), vehicle: saline).

As to `CC(=O)NCCCCCCNC(C)=O`, the T/C (dose: 1600.0 mg/kg/injection, schedule: Q01DX010 (sc), vehicle: saline) is 49 % of control and 75 % of control.

For the compound `O=NN(CCCl)C(=O)NCCO`, the T/C by setting is: (dose: 6.25 mg/kg/injection, schedule: Q04DX003 (sc), vehicle: water) 37 % of control and 159 % of control; (dose: 12.5 mg/kg/injection, schedule: Q04DX003 (sc), vehicle: water) 3 % of control and 56 % of control; (dose: 25.0 mg/kg/injection, schedule: Q04DX003 (sc), vehicle: water) -53 % of control and 31 % of control.

On to `CC1(C)N=C(N)N=C(N)N1c1ccc(F)c(C(F)(F)F)c1`, for which, under “dose: 6.25 mg/kg/injection, schedule: Q01DX010 (sc), vehicle: saline”, the T/C is 36 % of control and 187 % of control.

For `Cc1[nH]c(=O)[nH]c(=O)c1N(CCF)CCCl`, the T/C runs as follows: under setting [1], 58 % of control and 87 % of control; under setting [2], 55 % of control, 70 % of control, 122 % of control.

Consider `CCN(C)N=Nc1ccc(C(N)=O)cc1`, for which the T/C is -36 % of control, -18 % of control, 46 % of control under setting [3]; -93 % of control, 1 % of control, 20 % of control under setting [4]; -53 % of control and 15 % of control under setting [5].

`CC1=CC(=Nc2ccc(N(CCCl)CCCl)cc2)C=C(C)C1=O`: the T/C is 34 % of control, 78 % of control, 87 % of control (dose: 150.0 mg/kg/injection, schedule: Q04DX003 (sc), vehicle: Klucel (hydroxypropylcellulose) (HPC)); 63 % of control and 97 % of control under setting [6]; 20 % of control, 53 % of control, 87 % of control (dose: 600.0 mg/kg/injection, schedule: Q04DX003 (sc), vehicle: Klucel (hydroxypropylcellulose) (HPC)); 32 % of control and 63 % of control (dose: 1200.0 mg/kg/injection, schedule: Q04DX003 (sc), vehicle: Klucel (hydroxypropylcellulose) (HPC)).

As to `CC(C)(C)c1ccc(CN2CCN(C(c3ccccc3)c3ccc(Cl)cc3)CC2)cc1` (configuration not stated), the T/C under setting [6] is 41 % of control and 72 % of control.

Turning to `COC(=O)Nc1nc2ccc(C3(c4ccc(F)cc4)OCCO3)cc2[nH]1`, the T/C by setting is: (dose: 300.0 mg/kg/injection, schedule: Q04DX003 (sc), vehicle: saline with Tween-80) 74 % of control and 117 % of control; (dose: 600.0 mg/kg/injection, schedule: Q04DX003 (sc), vehicle: saline with Tween-80) 50 % of control and 93 % of control.

Turning to `COC(C(=O)C(O)C(C)O)C1Cc2cc3cc(OC4CC(OC(C)=O)C(OC5CC(O)C(OC)C(C)O5)C(C)O4)cc(O)c3c(O)c2C(=O)C1OC1CC(OC2CC(OC3CC(C)(O)C(OC(=O)C(C)C)C(C)O3)C(O)C(C)O2)C(O)C(C)O1` (configuration not stated), the T/C is, setting by setting: (dose: 1.0 mg/kg/injection, schedule: Q01DX010 (sc), vehicle: saline with Tween-80) 41 % of control, 70 % of control, 197 % of control; (dose: 2.0 mg/kg/injection, schedule: Q01DX010 (sc), vehicle: saline with Tween-80) 10 % of control, 59 % of control, 64 % of control.

On to `CC(=O)[O][Pb]([O]C(C)=O)([c]1ccccc1)[c]1ccccc1`, for which the T/C is 39 % of control and 78 % of control under setting [5]; 42 % of control and 97 % of control (dose: 800.0 mg/kg/injection, schedule: Q01DX010 (sc), vehicle: Klucel (hydroxypropylcellulose) (HPC)).

For `CC[C@@]1(O)C(=O)OCc2c1cc1n(c2=O)Cc2cc3cc(O)ccc3nc2-1`, the T/C is, setting by setting: (dose: 16.0 mg/kg/injection, schedule: Q04DX003 (sc), vehicle: suspension in saline) -98 % of control and 18 % of control; (dose: 64.0 mg/kg/injection, schedule: Q04DX003 (sc), vehicle: suspension in saline) -97 % of control, 1 % of control, 4 % of control; (dose: 128.0 mg/kg/injection, schedule: Q04DX003 (sc), vehicle: suspension in saline) -99 % of control, -52 % of control, 5 % of control.

Turning to `O=[N+]([O-])/C=C\c1ccc2c(c1)OCO2`, the T/C by setting is: under setting [3], 56 % of control and 98 % of control; under setting [4], 76 % of control, 84 % of control, 110 % of control; under setting [5], 49 % of control and 75 % of control; (dose: 400.0 mg/kg/injection, schedule: Q01DX010 (sc), vehicle: Klucel (hydroxypropylcellulose) (HPC)) 56 % of control and 93 % of control.

Consider `Cc1c(N)nc(C(CC(N)=O)NCC(N)C(N)=O)nc1C(=O)NC(C(=O)NC(C)C(O)C(C)C(=O)NC(C(=O)NCCc1nc(-c2nc(C(=O)NCCCNC(C)c3ccccc3)cs2)cs1)C(C)O)C(OC1OC(CO)C(O)C(O)C1OC1OC(CO)C(O)C(OC(N)=O)C1O)c1cnc[nH]1` (configuration not stated), for which the T/C (dose: 8.0 mg/kg/injection, schedule: Q01DX010 (sc), vehicle: saline) was 11 % of control and 48 % of control.

The values are drawn from PubChem BioAssay AID264 (DTP/NCI, 2004).
